Measurements reported in the RNAGym collection of RNA variant scans (doi:10.1093/nar/gkz1192).
The source gives no read counts; variants with many changes may rest on few reads.

B1: CPEB3 Ribozyme (parent)
chain: UAACAGGGGGCCACAGCAGAAGCGUUCACGUCGCAGCCCCUGUCAGAUUCUGGUGAAUCUGCGAAUUCUGCUGUAUAUCUC

Variants of: B1
Assay: self-cleavage, relative activity (ratio to wild type); higher = more cleavage; in vitro, sequencing
Outline: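 Relative activity was defined as the cleaved/total read fraction for a variant divided by the same fraction for the unmutated ribozyme. CPEB3 self-cleaving ribozyme libraries were made by rounds of error-prone PCR, barcoded, and transcribed in vitro with T7 RNA polymerase for 5 hours at 37°C, and cleavage ran through transcription plus a 15 min DNase I step before EDTA. Illumina sequencing of template-switched reverse transcripts gave the reads, and DNA sequencing mapped the barcodes. Averages come from three batches, using variants with at least 5 reads.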
Variant CAACAGGGGGCCACAGCAGAAGCGCUCACGCCGCAGCCCCUGUCAGAUUCUGGUGAAUCUGCGUAUUCUGCUGUAUAUCUC [U1C U25C U31C A64U] has a self-cleavage of 0.06. CAACAGGGGGCCACAGCAGAAGCGCUCACGUCGCAGCCCCCGUCAGAUUCUGGUGAAUCUGCGAAUUCUGCUGUAUAUCUC [U1C U25C U41C] showed a self-cleavage of 0.68. Work on CAACAGGGGGCCACAGCAGAAGCGCUCACGUCGCAGCCCCCGUCAGAUUCUGGUGAAUCUGCGAAUUCUGCCGUAUAUCUC [U1C U25C U41C U72C] yielded a self-cleavage of 0.35. For CAACAGGGGGCCACAGCAGAAGCGCUCACGUCGCAGCCCCUGACCGAUUCUGGUGAAUCUGCGUAUUCUGCUGUAUAUCUC [U1C U25C U43A A45C A64U], the self-cleavage was 0.05. CAACAGGGGGCCACAGCAGAAGCGCUCACGUCGCAGCCCCUGUCAGAUUCAGGUGAAUCUGCGAAUUCUGCUGUAUAUCUC [U1C U25C U51A] gave a self-cleavage of 0.46. For CAACAGGGGGCCACAGCAGAAGCGCUCACGUCGCAGCCCCUGUCAGAUUCAGGUGUAUCUGCGAAUCCUGCUGUAUAACUC [U1C U25C U51A A56U U67C U78A], the self-cleavage was 0.04. In the case of CAACAGGGGGCCACAGCAGAAGCGCUCACGUCGCAGCCCCUGUCAGAUUCUGGUGAAUCAGCGAAUACUGCUGUAUAUCUC [U1C U25C U60A U67A], the self-cleavage is reported as 0.05. Work on CAACAGGGGGCCACAGCAGAAGCGGUCUCGUCGCAGCCCCUGUCAGAUUCUGGUGAAUCUGCGAGUUCUGCUGUAUGUCCC [U1C U25G A28U A65G A77G U80C] yielded a self-cleavage of 0.12. CAACAGGGGGCCACAGCAGAAGCGGUCACGUCGCAUCCCCUGUCAGAUUCUGGUGAAUCUGCGAAUUCUGCUGUAUAUCUC [U1C U25G G36U] showed a self-cleavage of 0.29. For CAACAGGGGGCCACAGCAGAAGCGUACACGUCGCAGCCCCUGUCAGAUUCUGGUGUACCUGCGAAUUCUGCUGUAUAUCAC [U1C U26A A56U U58C U80A], the self-cleavage was 0.17. With CAACAGGGGGCCACAGCAGAAGCGUACACGUCGCAGCCCCUGUCAGAUUCUGGUGAAUCUGCGUAUUCUACUGUAUAUCUC [U1C U26A A64U G70A] the self-cleavage was 0.2. In the case of CAACAGGGGGCCACAGCAGAAGCGUACACGUCGCAGCCCCUGUCAGAUCCUGGUGAGUCUGCGAAUUCUGCAGUAUAUCUC [U1C U26A U49C A57G U72A], the self-cleavage is reported as 0.1. Variant CAACAGGGGGCCACAGCAGAAGCGUACACGUCGCAGCCCCUGUCAGAUCCUGGUGAAUCAGCGGAUUCUGCUGUAUAUCUC [U1C U26A U49C U60A A64G] has a self-cleavage of 0.07. With CAACAGGGGGCCACAGCAGAAGCGUCCGCGUCGCAGCCCCUGUCAGACUCUGGUGAAUCUGCGAAUUCUGCUGUAUAUCCC [U1C U26C A28G U48C U80C] the self-cleavage was 0.36. Variant CAACAGGGGGCCACAGCAGAAGCGUCCACGUCGCAGCCCCUGUCAGAUUCUGGUGAAUCUGCGGAUUCUGCUGCAAAUCUC [U1C U26C A64G U74C U76A] has a self-cleavage of 0.52. Variant CAACAGGGGGCCACAGCAGAAGCGUCAGCGUCGAAGCCCCUGUCAGAUUCUGGUGAAUCCGCGAAUUCUGCUGUAUAUCUC [U1C U26C C27A A28G C34A U60C] has a self-cleavage of 0.05. Work on CAACAGGGGGCCACAGCAGAAGCGUCCACGUCGCAGCCCCUGUCAGAUUCUGAUGAACCUGCGAAUUCUGCUGUAUAUCUC [U1C U26C G53A U58C] yielded a self-cleavage of 0.08. With CAACAGGGGGCCACAGCAGAAGCGUCCACGUCGCAGCCCCUGUCAGAUACUGGUGAAUCUGCGUAUCCUGCUGCAUAUCUC [U1C U26C U49A A64U U67C U74C] the self-cleavage was 0.05. With CAACAGGGGGCCACAGCAGAAGCGUCCACGUCGCAGCCCCUGUCAGAUUCAGGUGAAUCUGCGAAUUCUGCUGUAUAUCUC [U1C U26C U51A] the self-cleavage was 0.47. With CAACAGGGGGCCACAGCAGAAGCGUCCACGUCGCAGCCCCUGUCAGAUUCUGGUGAAUCCGCGAAUCCUACUGUAUAUCUC [U1C U26C U60C U67C G70A] the self-cleavage was 0.29. CAACAGGGGGCCACAGCAGAAGCGUCCACGUCGCAGCCCCUGUCAGAUUCUGGUGAAUCUGCGAAUCCUACUGUAUAUCUC [U1C U26C U67C G70A] gave a self-cleavage of 0.24. CAACAGGGGGCCACAGCAGAAGCGUGCACGUCGCAGCCCCUGUCAGAUUCUGGUGAGUCUGCGAAUUCUGCUGUAUAUCUC [U1C U26G A57G] gave a self-cleavage of 0.59. CAACAGGGGGCCACAGCAGAAGCGUUCACGACGCUGCUCCUGUCAGAUCCUGGUGAACCUGCGGAUUCUGCUGUAUAUCUC [U1C U31A A35U C38U U49C U58C A64G] showed a self-cleavage of 0.04. For CAACAGGGGGCCACAGCAGAAGCGUUCACGACGCAGCCCCUGUCAGAUUCUGGUGGAUCUGCGAAUUCUGCUGUAUAUCUC [U1C U31A A56G], the self-cleavage was 0.34. With CAACAGGGGGCCACAGCAGAAGCGUUCACGCCGCGGCCCCUGUCGGAUUCUGGUGAGUCUGCGAAUUCUGCUGUAUAUCUC [U1C U31C A35G A45G A57G] the self-cleavage was 0.86. With CAACAGGGGGCCACAGCAGAAGCGUUCACGCCGCGGCCCCUGUCAGAUUCUGGUGGUUCUGCGAAUUCUGCUGUAUAUCUC [U1C U31C A35G A56G A57U] the self-cleavage was 0.47. In the case of CAACAGGGGGCCACAGCAGAAGCGUUCACGCCGCAGCCCCUGUCAGAUUCUGGUGCAUCUGCGAAUUCUGCAGUAUAUCUC [U1C U31C A56C U72A], the self-cleavage is reported as 0.09. Variant CAACAGGGGGCCACAGCAGAAGCGUUCACGCUGCAGCCCCUGUCAGAUUCCGGUGAACCUGCGAAUUCUGCUGUAUAUCUC [U1C U31C C32U U51C U58C] has a self-cleavage of 0.07. Variant CAACAGGGGGCCACAGCAGAAGCGUUCACGCCGCAGCCCCUGUCAGAUUCUGGUGAAUCUGCGAAUUCUGGUGUAUAUAUC [U1C U31C C71G C79A] has a self-cleavage of 0.29. Work on CAACAGGGGGCCACAGCAGAAGCGUUCACGCCGCAGCCCCUGUCAGAUUCUGGGGAAUCUGCGAAUUCUGCUGUAUAACUC [U1C U31C U54G U78A] yielded a self-cleavage of 0.26. For CAACAGGGGGCCACAGCAGAAGCGUUCACGCCGCAGCCCCUGUCAGAUUCUGGUGAAACAGCGAAUCCUGCUGUAAAUCUC [U1C U31C U58A U60A U67C U76A], the self-cleavage was 0.08. CAACAGGGGGCCACAGCAGAAGCGUUCACGUCGCAGCCCCAGUCAGAUUCUGGUGGAUCUGCGAAUUCUGCUGUAUAUCUC [U1C U41A A56G] showed a self-cleavage of 0.25. In the case of CAACAGGGGGCCACAGCAGAAGCGUUCACGUCGCAGCCCCAGUCAGAUUCUGGUGGAUCUGCGAAUUCUGCUGUUUAUCUC [U1C U41A A56G A75U], the self-cleavage is reported as 0.06. Work on CAACAGGGGGCCACAGCAGAAGCGUUCACGUCGCAGCCCCAGUCAGAUUCUGGUGAAUCUGCGAAUUCUGCUGUGUAUCUC [U1C U41A A75G] yielded a self-cleavage of 0.27.
